As a reminder, the CC50 is the concentration at which the toxic effect on the cells reaches its halfway point. Low values mean greater toxicity to the cells, high ones lower toxicity to the cells.

This is one part of the list. The main result of the screen is listed elsewhere. These columns were measured beside it and carry no call. Compounds called inactive in the main read-out are mostly missing here. The note in brackets gives the kind of curve behind each potency; many fits are weak.
Tags give direction and shape of the fitted curve.

This assay can be described thus: Natriuretic polypeptide receptor (hNpr1) antagonism - Confirmation. Note: nearly all actives have a fitted effect of over 70% in size. The conditions noted are these: HEK293 hNpr1 cGMP GloSensor luminescence, ANP-stimulated; measured here: HEK-hNpr1 cytotoxicity, CellTiter-Glo. On the procedure: In order to identify small molecular compounds that inhibit the hNpr1 receptor we developed a high-throughput assay to measure inhibition of the guanylate cyclase activity of the receptor. cGMP production was measured using a circular permutated Firefly luciferase (FLuc) enzyme functionally linked to the cGMP binding domain of human phosphodiesterase 5 (GloSensor technology pGS-40F, (Fan, F. et al. 2008). The cGMP-sensor was expressed in human embryonic kidney 293 (HEK-293) cells and FLuc activity was measured after stimulation with hNrp agonist peptide. hNrp agonists activates the receptor's associated guanylyl cyclase (GC) domain producing cGMP which then binds to the GloSensor resulting in FLuc activation, the enzymatic activity of which can be measured as bioluminescence with addition of luciferin substrate. A cytotoxicity counter-screen using the HEK-hNpr1-cGMP-sensor cells was also performed on the follow-up compounds. F. Fan, B. F. Binkowski, B. L. Butler, P. F. Stecha, M. K. Lewis, K. V. Wood, Novel genetically encoded biosensors using firefly luciferase. ACS Chem Biol 3, 346-351 (2008).
PROTOCOL TABLES (as described by Inglese J, Shamu CE and Guy RK. 2007) SEQUENCE No. (e.g., 1, 2, 3, etc.); PARAMETER (e.g., Cells, Incubation, Reagent, etc.); VALUE and DESCRIPTION. GLOSENSOR PROTOCOL 1. Cells. Seed 1500 HEK293 cGMP-sensor cells expressing hNpr1 per well in 4uL into Greiner 1536-well white/solid bottom high base, tissue culture-treated plates. 2. Incubation. Incubate plated cells at 37C in 5% CO2, 95% RH overnight. 3. Reagent. Add 1uL per well GloSensor reagent from Promega (2% final concentration) or CO2 independent media vehicle control to respective columns of Greiner 1536-well plates. 4. Incubation. Incubate plated cells at room temperature for 2 h, protect from light. 5. Compounds. Library compounds and A-71915 control added at 23 nL per well, transferred by Pin Tool. 6. Incubation. Incubate plated cells for 30 min. at room temperature, protect from light. 7. Detector. GloSensor baseline pre-read luminescence measured using CCD-based camera (Viewlux). 8. Compound. Add 1uL of hNppA peptide to 0.1 nM final concentration to stimulate hNpr1 or CO2 independent media as vehicle control. 9. Incubation. Incubate treated cells at room temperature for 20 min., protect from light. 10. Detector. GloSensor post-hNppA luminescence measured using CCD-based camera (Viewlux). NOTES (numbers refer to Sequence numbers above) 1. HEK293 cells expressing hNpr1 and GIP/pGS-40F grown to 85-95% confluence (48-72 h) in T175 culture flasks (CO2 independent media supplemented with 10% FBS, 1% Pen/Strep antibiotics and 1 ug/mL puromycin). Trypsinize and harvest cells from T175 culture flasks and filter through 40 um cell strainer. Cells counted with Invitrogen Countess (30,000,000 - 50,000,000 cells/flask). Cells diluted to a final concentration of 375 cells/uL in CO2 independent media and a Millipore multidrop used to dispense 1500 cells per well (4uL/well) into 13 1536-well Greiner White/Solid bottom, high base tissue-culture treated (TC) plates and one Aurora 1536-well Black/Clear bottom, low base, TC plate (for visual inspection of cell health throughout the duration of the assay). 2. Cells incubated overnight at ambient temperature, 24 h. at 37C in 95% RH incubator protected from light, covered with metal lid with gas-exchange holes. 3. Prepare GloSensor Reagent (Promega): Reconstitute GloSensor luciferase substrate by adding 8.2mL Hepes buffer to 250mg substrate, mix well, protect from light and stored at -80C. Prepare a fresh 12% GloSensor solution in CO2 independent supplemented plating media (see above). Mix well and store at ambient temperature, protected from light. 1uL 12% GloSensor Luciferase Reagent added (2% final concentration) to respective columns of 13 x 1536-well Greiner plate with BioRaptr, 1uL CO2 independent plating media added to respective columns as vehicle control with BioRaptr. 4. […]
Consider `COc1cc2c(cc1OCc1ccncc1)NC(=O)C21CCN(c2ncc(F)cn2)CC1`, for which the CC50 is 39.6 µM [falling, partial curve]. With `COc1cc2c(cc1OCc1ccccc1)NC(=O)C21CCN(c2ccccn2)CC1`, the CC50 is 35.3 µM [falling, single point]. The same measure for `CCn1nccc1C(=O)N1[C@H]2CC[C@@H]1c1cnc(-c3ccc(F)cc3)nc1C2`: 13.7 µM [falling, full curve]; for `Cn1cccc1C(=O)N1[C@H]2CC[C@@H]1c1cnc(-c3ccc(F)cc3)nc1C2`: 9.68 µM [falling, partial curve]; for `O=C(C1CCC1)N1[C@H]2CC[C@@H]1c1cnc(-c3ccc(F)cc3)nc1C2`: 17.2 µM [falling, partial curve]. Then `COc1cc2c(cc1Oc1cccc(N(C)C)c1)NC(=O)C21CCN(Cc2ccccc2)CC1`, with 21.7 µM [falling, partial curve]; and `Cc1cc(C(=O)N2[C@H]3CC[C@@H]2c2cnc(-c4ccc(F)cc4)nc2C3)n[nH]1`, with 30.6 µM [falling, single point]. For the molecule `CCCS(=O)(=O)N1[C@H]2CC[C@@H]1c1cnc(-c3ccc(F)cc3)nc1C2`, the CC50 was 21.7 µM [falling, partial curve]. The same measure for `COc1cc2c(cc1Oc1cccc(N(C)C)c1)NC(=O)C21CCN(CCC(C)C)CC1`: 22.2 µM [falling, partial curve]; for `Cc1ccsc1C(=O)N1[C@H]2CC[C@@H]1c1cnc(-c3ccc(F)cc3)nc1C2`: 12.2 µM [falling, partial curve]; for `COCCn1c(C)cc(C(=O)N2[C@H]3CC[C@@H]2c2cnc(-c4ccc(F)cc4)nc2C3)c1C`: 15.3 µM [falling, partial curve].

Take `COc1cc2c(cc1Oc1cccc(N(C)C)c1)NC(=O)C21CCN(Cc2ccccn2)CC1`: the CC50 was 21.7 µM [falling, partial curve]. The same measure for `Cc1cccc(OCC(=O)N2[C@H]3CC[C@@H]2c2cnc(-c4ccc(F)cc4)nc2C3)c1`: 43.2 µM [falling, single point]. For `O=C(C1CCCC1)N1[C@H]2CC[C@@H]1c1cnc(-c3ccc(F)cc3)nc1C2`, the CC50 was 10.9 µM [falling, partial curve].

Regarding `O=C(C1CCCCC1)N1[C@H]2CC[C@@H]1c1cnc(-c3ccc(F)cc3)nc1C2`, the CC50 was 15.3 µM [falling, partial curve]. The same measure for `CC(C)C(=O)N1[C@H]2CC[C@@H]1c1cnc(-c3ccc(F)cc3)nc1C2`: 15.3 µM [falling, partial curve]. Turning to `COc1ccc(CNC(=O)N2[C@H]3CC[C@@H]2c2cnc(-c4ccccc4)nc2C3)cc1`, the CC50 was 17.2 µM [falling, partial curve]. `COc1cc2c(cc1Oc1cccc(N(C)C)c1)NC(=O)C21CCN(c2cnccn2)CC1`: the CC50 is 24.3 µM [falling, partial curve]. On to `COc1cc2c(cc1Oc1ccccc1)NC(=O)C21CCN(Cc2cccc(O)c2)CC1`, for which the CC50 is 35.3 µM [falling, partial curve]. In the case of `COc1cc2c(cc1Oc1ccccc1)NC(=O)C21CCN(c2cnccn2)CC1`, the CC50 is 35.3 µM [falling, partial curve]. Then `O=C(c1ccsc1)N1[C@H]2CC[C@@H]1c1cnc(-c3ccc(F)cc3)nc1C2`, with 17.2 µM [falling, partial curve]. For the molecule `CC(C)CC(=O)N1[C@H]2CC[C@@H]1c1cnc(-c3ccc(F)cc3)nc1C2`, the CC50 is 15.3 µM [falling, partial curve].

On to `O=C(CC1CCCC1)N1[C@H]2CC[C@@H]1c1cnc(-c3ccccc3)nc1C2`, for which the CC50 is 15.3 µM [falling, partial curve].

For `COc1cc2c(cc1Oc1cccc(N(C)C)c1)NC(=O)C21CCN(Cc2cccc(O)c2)CC1`, the CC50 is 19.3 µM [falling, partial curve]. The same measure for `O=C1Nc2ccccc2C12CCN(Cc1ccc(C(F)(F)F)cc1)CC2`: 24.3 µM [falling, partial curve]; for `O=C(CC1CCCC1)N1[C@H]2CC[C@@H]1c1cnc(-c3ccc(F)cc3)nc1C2`: 5.44 µM [falling, full curve]; for `CCn1nccc1C(=O)N1[C@H]2CC[C@@H]1c1cnc(-c3ccccc3)nc1C2`: 17.2 µM [falling, partial curve]. For `COc1ccccc1C(=O)N1[C@H]2CC[C@@H]1c1cnc(-c3ccc(F)cc3)nc1C2`, the CC50 is 10.9 µM [falling, partial curve].

The values are drawn from PubChem BioAssay AID1347044 (National Center for Advancing Translational Sciences (NCATS), 2019).
